Experimental data taken from the supplement of paper PMC9334596.
Where “and” joins values, the source holds several entries; their conditions need not be identical. Equal entries are not always repeated. Over roughly 5,300 compounds, “PER2::LUC luminescence relative to vehicle control” has its median near 0.96; the highest 2% begin near 1.3. This is one part of the list.

System: mPer2Luc MEF
Test: PER2::LUC luminescence relative to vehicle control (fold of vehicle); higher = higher PER2::LUC reporter signal
Details: 10 µM
In short: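 The reported values are PER2::LUC luminescence as fold of vehicle control in mouse embryonic fibroblasts carrying the mPer2Luc reporter. Cells were seeded at ~3000 per well in 384-well plates in DMEM with 10% FBS at 37 °C and 5% CO2, and compounds were added at 10 μM 48 h later. ONE-Glo luminescence was read 24 h and 30 h after treatment.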

Compound	PER2::LUC luminescence (time after treatment 24 h)	PER2::LUC luminescence (time after treatment 30 h)
O=c1[nH]c(C2CCCN2)nc2c1oc1ccc(Cl)cc12 (stereo not given)	1.22	1.29
N=C(N)NC(=N)NCCc1ccccc1	1.02	0.868
COc1ccc(-c2cc(=O)c3ccccc3o2)cc1	1.72	1.29
CO[C@H]1/C=C/O[C@@]2(C)Oc3c(C)c(O)c4c(O)c(c(/C=N/N5CCN(C6CCCC6)CC5)c(O)c4c3C2=O)NC(=O)/C(C)=C\C=C\[C@H](C)[C@H](O)[C@@H](C)[C@@H](O)[C@@H](C)[C@H](OC(C)=O)[C@@H]1C	0.838	0.993
CC(C)(C=O)Cc1cc(C(C)(C)C)c(O)c(C(C)(C)C)c1	0.882	0.887
CC(C)(CO)[C@@H](O)C(=O)NCCC(=O)NCCSSCCNC(=O)CCNC(=O)[C@H](O)C(C)(C)CO	0.959 and 0.942	1.1 and 0.88
C[C@H]1O[C@H](O[C@H]2[C@H](O)[C@@H](O)[C@@H](O[C@H]3[C@H](O)[C@@H](O)C(O)O[C@@H]3CO)O[C@@H]2CO)[C@H](O)[C@@H](O)[C@@H]1N[C@H]1C=C(CO)[C@@H](O)[C@H](O)[C@H]1O (stereo not given in full)	0.986	0.945
Cn1c(CNc2ccc(C(=N)N)cc2)nc2cc(C(=O)N(CCC(=O)O)c3ccccn3)ccc21	1.01 and 1.14	0.946 and 1.13
CNC1CCCN(c2c(F)cc3c(=O)c(C(=O)O)cn(C4CC4)c3c2OC)C1 (stereo not given)	1.05	1.04
CC[C@H]1[C@@H](O)[C@@H]2[C@H](CC[C@]3(C)[C@@H]([C@H](C)CCC(=O)O)CC[C@@H]23)[C@@]2(C)CC[C@@H](O)C[C@@H]12	1.02	1.12
CN1CCN(CC/C=C2/c3ccccc3Sc3ccc(S(=O)(=O)N(C)C)cc32)CC1	0.816 and 0.638	0.993 and 0.631
CCOCCn1c(C2CCN(CCc3ccc(C(C)(C)C(=O)O)cc3)CC2)nc2ccccc21	1.04	0.962
CCCCCC1C(=O)CCC1CC(=O)OC (stereo not given)	1.06	0.978
CC(C)=CCC/C(C)=C/CC/C(C)=C/CC/C(C)=C/C(=O)O	1.07	0.976
C=C(CC)C(=O)c1ccc(OCC(=O)O)c(Cl)c1Cl	0.817	0.944
CCCCCOc1ccc(-c2ccc(-c3ccc(C(=O)N[C@H]4C[C@@H](O)[C@@H](O)NC(=O)[C@@H]5[C@@H](O)[C@@H](C)CN5C(=O)[C@H]([C@@H](C)O)NC(=O)[C@H]([C@H](O)[C@@H](O)c5ccc(O)cc5)NC(=O)[C@@H]5C[C@@H](O)CN5C(=O)[C@H]([C@@H](C)O)NC4=O)cc3)cc2)cc1	0.982	0.954
CC(C)c1nc(N(C)S(C)(=O)=O)nc(-c2ccc(F)cc2)c1/C=C/[C@@H](O)C[C@@H](O)CC(=O)O	0.859 and 0.89	0.949 and 0.869
C[N+](C)(C)CCOP(=O)(O)OP(=O)([O-])OC[C@H]1O[C@@H](n2ccc(N)nc2=O)[C@H](O)[C@@H]1O	1.13 and 0.767	0.929 and 0.951
Nc1ccc(S(=O)(=O)NC(=O)c2ccccc2)cc1	0.813	0.842
CC(C)NCC(O)COc1cccc2ccccc12 (racemic)	0.894	1.11
CNC(=O)c1c(-c2ccc(F)cc2)oc2cc(N(CCO)S(C)(=O)=O)c(C3CC3)cc12	1.01	1.01

Compound	PER2::LUC luminescence (time after treatment 24 h)	PER2::LUC luminescence (time after treatment 30 h)
C[C@](N)(Cc1ccc(O)cc1)C(=O)O	1.08	1.18
CNCCNS(=O)(=O)c1cccc2cnccc12	1.21	1.1
O=C(COc1cccc2c(=O)[nH]ccc12)c1ccccc1	0.847	0.942
Cc1cccc(C)c1NC(=O)c1ccccc1C(=O)O	1.03	0.712
CCNC(=O)[C@H]1O[C@@H](n2cnc3c(N)nc(NCCc4ccc(CCC(=O)O)cc4)nc32)[C@H](O)[C@@H]1O	1.11 and 1.12	1.21 and 1.03
FCOC(C(F)(F)F)C(F)(F)F	0.874	0.956
CS(=O)(=O)c1ccc([C@@H](O)[C@@H](CF)NC(=O)C(Cl)Cl)cc1	1.02	0.924
CCN(CC)CCCC(C)Nc1ccnc2cc(Cl)ccc12 (stereo not given)	0.908	0.93
CC(C)NC(=O)COc1cccc(-c2nc(Nc3ccc4[nH]ncc4c3)c3ccccc3n2)c1	0.78	0.739
CS(=O)(=O)Nc1cc2occ(NC=O)c(=O)c2cc1Oc1ccccc1	1.09	0.986
N[C@@H](CC(=O)O)C(=O)O	1.07 and 0.999	1.05 and 0.982
CNc1ncnc2c1ncn2[C@@H]1O[C@H](CO)[C@@H](O)[C@H]1O	0.974	1.04
Cc1ncc([N+](=O)[O-])n1C	1.13	0.998
CC(C)OC(=O)C(C(=O)OC(C)C)=C1SC=CS1	0.876	0.982
COc1cccc(CCc2ccccc2OCC(CN(C)C)OC(=O)CCC(=O)O)c1 (stereo not given)	0.795	0.723
CN(C)C[C@H](O)Cn1c2ccc(Br)cc2c2cc(Br)ccc21 (racemic)	1.05	1.07
CC[C@]12C=CCN3CC[C@@]4(c5cc([C@@]6(C(=O)OC)C[C@@H]7C[C@@H](C(C)(F)F)CN(Cc8c6[nH]c6ccccc86)C7)c(OC)cc5N(C)[C@H]4[C@@](O)(C(=O)OC)[C@@H]1OC(C)=O)[C@@H]32	0.29	0.21
CCOc1cc(N2CCC(O)CC2)ccc1Nc1ncc2c(n1)N(C1CCCC1)CCC(=O)N2C	0.169	0.168
c1ccc2c(c1)CCCC2C1=NCCN1 (stereo not given)	0.873 and 0.792	0.994 and 0.861
C[C@@H](O)[C@H]1C(=O)N2C(C(=O)O)=C(SCCNC=N)C[C@H]12	0.584	0.799
CN=c1nc(-c2ccccc2)n(-c2ccccc2)s1	1 and 1.21	0.972 and 1.08

Compound	PER2::LUC luminescence (time after treatment 24 h)	PER2::LUC luminescence (time after treatment 30 h)
Oc1ccc2c(c1)OC[C@]1(O)Cc3cc(O)c(O)cc3[C@H]21	0.742	0.607
CC(C)=CCC[C@](C)(O)[C@H]1CC[C@]2(C)[C@@H]1CC[C@@H]1[C@@]3(C)CCC(=O)C(C)(C)[C@@H]3CC[C@]12C	1.05	0.987
O=C(/C=C/c1ccc(O)c(O)c1)c1ccc(O[C@@H]2O[C@H](CO)[C@@H](O)[C@H](O)[C@H]2O)c(O)c1O	1.01	0.965
C=C(C)[C@@H]1CC[C@]2(C(=O)O)CC[C@]3(C)[C@H](CC[C@@H]4[C@@]5(C)CC[C@H](O)C(C)(C)[C@@H]5CC[C@]43C)[C@@H]12	0.994	0.925
CCCCCN(C)CCC(O)(P(=O)(O)O)P(=O)(O)O	0.993 and 1.05	1.11 and 0.887
O=C(O)C1=C[C@@H](O)[C@@H](O)[C@H](O)C1	1.04	0.972
C1N2CN3CN1CN(C2)C3	0.971 and 1.17	0.942 and 0.974
C[Se]CC[C@H](N)C(=O)O	0.995	1.04
Nc1ncnc2c1ncn2[C@@H]1O[C@H](CO)C[C@@H]1O	0.952	0.956
O=C(O)C1CCNCC1	0.958	0.804
CONC(=O)c1ccccc1Nc1cc(Nc2cc(C)nn2C(C)C)ncc1Cl	0.8	0.783
CC1(C)CCC(NC(=O)[C@@H](N)CCC(=O)O)CC1	0.948	1
CC(CCC(=O)O)[C@H]1CCC2C3C[C@H](O)[C@@H]4C[C@H](O)CC[C@]4(C)C3CC[C@@]21C (stereo not given in full)	1.03	1
COc1cc(O)c(C(=O)/C=C/c2ccc(OC)c(O)c2)c(OC)c1	1.08	1
CN(C)c1cnccn1	0.575	1.03
C=CCc1ccc(O)c(OC)c1	0.904	0.736
OC[C@@H](O)[C@@H](O)[C@H](O)[C@H](O)CO	0.948 and 0.906	0.932 and 0.967
C=CC(N)CCC(=O)O (racemic)	1.06	0.823
CC1(C)CCC=[N+]1[O-]	0.993	0.977
CCCC[C@@H](C)/C=C(C)/C=C(\C)C(=O)NC1=C[C@@](O)(/C=C/C=C/C=C/C(=O)NC2=C(O)CCC2=O)[C@@H]2O[C@@H]2C1=O	0.951	0.934
C[C@H](NCc1ccc(OCc2cccc(F)c2)cc1)C(N)=O	1.22 and 1.67	1.5 and 1.51

Compound	PER2::LUC luminescence (time after treatment 24 h)	PER2::LUC luminescence (time after treatment 30 h)
CC(=O)OCC(=O)NCCCOc1cccc(CN2CCCCC2)c1	0.981	0.932
CCn1cc(C(=O)O)c(=O)c2cc(F)c(N3CCNCC3)nc21	1.12 and 0.972	1.18 and 0.886
C[C@@H]1CN(CCCn2c3ccccc3c3ccccc32)C[C@H](C)N1	0.66	0.661
CC(C(=O)O)c1cccc(Oc2ccccc2)c1 (stereo not given)	1.05 and 1.13	0.945 and 1.02
O=C(O)CN(CCN(CC(=O)O)CC(=O)O)CC(=O)O.[Na+].[Na+].[Na+]	0.945	0.908
COc1ccccc1-c1coc2cc(O)ccc2c1=O	1.14	1.04
Oc1ccc(C2CNCCc3c2cc(O)c(O)c3Cl)cc1 (stereo not given)	–	1.12 and 0.881 and 0.928
COC(=O)C[C@H]1C(C)(C)[C@@H](O)[C@@H]2CC3=C4C=C(OC)O[C@@H](c5ccoc5)[C@]4(C)CCC3[C@@]1(C)C2=O (stereo not given in full)	1.1	1.13
COc1ccc2c(C)cc(=O)oc2c1	0.984	1.02
CC(C)[C@H](NC(=O)CCCCCN1C(=O)C=CC1=O)C(=O)N[C@@H](CCCNC(N)=O)C(=O)Nc1ccc(COC(=O)Oc2ccc([N+](=O)[O-])cc2)cc1	0.958	1.07
COc1cc(OC)c2c(=O)cc(-c3ccccc3)oc2c1	1.01	1.12
COc1cc(C(=S)N2CCOCC2)ccc1O	1.07	0.96
O=C1OC(c2ccc(O)cc2)(c2ccc(O)cc2)c2ccccc21	1.21	0.901
CCCc1ncc(C[n+]2ccccc2C)c(N)n1	1.03	0.845
OC[C@H]1OC(O)[C@H](O)[C@@H](O)[C@@H]1O (stereo not given in full)	1	0.988
CNc1cc2c(Nc3cccc(Br)c3)ncnc2cn1	0.876	0.747
O=C1NC(=O)C(c2ccccc2[N+](=O)[O-])=C1Nc1ccc(O)c(Cl)c1	1.12	1.17
C=CC(C)(O)CCC=C(C)CCC=C(C)C (mixture of isomers)	0.972	0.961
COc1cc(C)c(C(=O)O)c(O)c1	0.887	0.965
CC(C)NCC(O)c1ccc(O)c(O)c1 (racemic)	1.25	0.982
